# Experimental data: PMC7819943, “Rice protein-binding microarrays: a tool to detect cis-acting elements near promoter regions in rice”
# The list shows a part of the results.
# Biological target: T1, OsWOX13 (Oryza sativa, UniProt Q5QMM3 1-267)
# T1 sequence: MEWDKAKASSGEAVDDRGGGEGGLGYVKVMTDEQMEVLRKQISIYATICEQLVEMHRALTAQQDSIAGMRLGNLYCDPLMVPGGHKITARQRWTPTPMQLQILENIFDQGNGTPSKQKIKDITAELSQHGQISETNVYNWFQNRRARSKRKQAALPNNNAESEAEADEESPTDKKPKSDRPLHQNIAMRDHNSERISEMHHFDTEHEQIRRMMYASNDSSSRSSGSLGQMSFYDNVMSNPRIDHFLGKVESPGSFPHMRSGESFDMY
# Test: protein-binding microarray (RPBM); PBS, 2% BSA, 51.3 ng/ul salmon testes DNA, 50 uM zinc acetate, 200 nM TF, 25 C, 1 h; high values mean tight binding
# Settings: protein: recombinant; tags: N-terminal polyhistidine and DsRed monomer fusion (pET32a); label: CyDye5-dUTP incorporated in the synthesized complementary strand; 3' TTTTT single-stranded linker to array surface; dsDNA, one strand shown
# Outline: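 The binding signal is fluorescence intensity per feature, in arbitrary units, read on an Axon 4000B scanner. Polyhistidine- and DsRed-tagged transcription factors (N-terminal fusions) from E. coli BL21-CodonPlus were purified on Ni–NTA and applied at 200 nM for 1 h at 25 °C to a double-stranded, BSA-blocked custom Agilent array in buffer with 50 µM zinc acetate.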
row,Sequence,binding signal
1,CTTGATTATATGCCTTACAAGTAGGGTGTTAGACTTGTCTCGGAGTCACCTAGTGCAG,19600 fluorescence intensity (a.u.)
2,TTCATGAGAATTAATTTTGATTGGATCAACTCTAAAAGTTCGGAGTCACCTAGTGCAG,27200 fluorescence intensity (a.u.)
3,CGTATTCTATAATTGGTGAGGCATATAACAATATTTGTATCGGAGTCACCTAGTGCAG,5160 fluorescence intensity (a.u.)
4,CAAAATCTGTCCAAATCAATCCACGCATCGATTGTACTATCGGAGTCACCTAGTGCAG,5780 fluorescence intensity (a.u.)
5,TCAGGCAATTACTACAACAATAGACAAGCGCACTTTCTGCCGGAGTCACCTAGTGCAG,5420 fluorescence intensity (a.u.)
6,TCATATTGATGTTAATGAATCTGGATAGATATATATGTCTCGGAGTCACCTAGTGCAG,5290 fluorescence intensity (a.u.)
7,GTGACTTTTGTTATAATAGATGGATGGGTTGTCACTGTAGCGGAGTCACCTAGTGCAG,4620 fluorescence intensity (a.u.)
8,GCCTAATTAATCCATCATTAGCAAATGTTTACTGTAGCATCGGAGTCACCTAGTGCAG,50500 fluorescence intensity (a.u.)
9,ACTAAATTGGGTTGGGGTGCCTCCTCCTTCCTTTCTTTCTCGGAGTCACCTAGTGCAG,21000 fluorescence intensity (a.u.)
10,TGTGGTTTTCTAGTTAATTAACAAGCTAGCTATACCTAGCCGGAGTCACCTAGTGCAG,7460 fluorescence intensity (a.u.)
11,CATACACCTTATGATTAGATAAGTATGTGTCACCAGGAATCGGAGTCACCTAGTGCAG,4650 fluorescence intensity (a.u.)
12,AAAAGATTGAATGTGGAAGTTCTATCTCAATCATATGCTTCGGAGTCACCTAGTGCAG,39400 fluorescence intensity (a.u.)
13,GAAACTAATTTAGAGTATTAAATATAACTACTTATAAAACCGGAGTCACCTAGTGCAG,5570 fluorescence intensity (a.u.)
14,CCTGATGGAAGTCTTAAGACATCTGAGGACAACCTTGATGCGGAGTCACCTAGTGCAG,13300 fluorescence intensity (a.u.)
15,CTCAGGTTAATTACATCACGCGTTGTTCTATGAAGATACACGGAGTCACCTAGTGCAG,10900 fluorescence intensity (a.u.)
16,CATCAATTAGGAACGAGAATGGCCGAGAGAGTTGAATTTGCGGAGTCACCTAGTGCAG,18900 fluorescence intensity (a.u.)
17,ATAATTATTTAAAAGTAATTTGTGGTTAAAGTGAGATGATCGGAGTCACCTAGTGCAG,14600 fluorescence intensity (a.u.)
18,GTCTAAATTATCTTTATTTATACATAAATATAATATTAACCGGAGTCACCTAGTGCAG,15800 fluorescence intensity (a.u.)
19,TTTTGATTGTGTCATTGCCTGCAATGACAGGTCAGAAAACCGGAGTCACCTAGTGCAG,14000 fluorescence intensity (a.u.)
20,TAACGACGTGATTAGGGCAGAGAATACGATACAAATTCGTCGGAGTCACCTAGTGCAG,15800 fluorescence intensity (a.u.)
21,CCCGATTGACAAGCTGACTCAGCATGGAGGGACCCACATGCGGAGTCACCTAGTGCAG,37700 fluorescence intensity (a.u.)

row,Sequence,binding signal
1,GTCCGTAATTGATCATATTTATCATTTAAATTACTCAGTGCGGAGTCACCTAGTGCAG,61900 fluorescence intensity (a.u.)
2,ATTTGTCCAAAACATCAATTGATTTTGTCTGGAGGAAGTACGGAGTCACCTAGTGCAG,5760 fluorescence intensity (a.u.)
3,TGACTAATTTATTATTCCATAAAATTTTCAAATAAGATATCGGAGTCACCTAGTGCAG,13200 fluorescence intensity (a.u.)
4,TTCCTGTGCTAATTTAACTGCATAAACCATGTAGAGTTGACGGAGTCACCTAGTGCAG,6440 fluorescence intensity (a.u.)
5,GACAATATTAATTACTGCTGCTTTCGTCCACACAGTGAAACGGAGTCACCTAGTGCAG,6490 fluorescence intensity (a.u.)
6,TGATTAGTTAATTAATCAATTTGAGATGGCATGCTGATACCGGAGTCACCTAGTGCAG,29100 fluorescence intensity (a.u.)
7,AATAATAATAACAATTATATTTGTTTTAAATAAGACAGAACGGAGTCACCTAGTGCAG,4000 fluorescence intensity (a.u.)
8,TTTGATAATATAAATAATTAATAACTAACACATATATAAACGGAGTCACCTAGTGCAG,6390 fluorescence intensity (a.u.)
9,TGCTAGATTAGCATGCATGATGCATGTAGGAGCACAATATCGGAGTCACCTAGTGCAG,5340 fluorescence intensity (a.u.)
10,GGCGATTGATTTGCGCGTGGAAGGAAATCGACAATCGAGTCGGAGTCACCTAGTGCAG,39500 fluorescence intensity (a.u.)
11,TTACAGTTTCAAATCAATTTACAATCACATTCTTGATCTACGGAGTCACCTAGTGCAG,17700 fluorescence intensity (a.u.)
12,AAACAAATTTGTGGCGACACAAATACAACCTTTCCGTTTTCGGAGTCACCTAGTGCAG,3540 fluorescence intensity (a.u.)
13,TTTAGCTTGATTGGTGATTTGCTGTTTTGCTCCAAGGTATCGGAGTCACCTAGTGCAG,44600 fluorescence intensity (a.u.)
14,CAAAACTACTGCAATTATTATATGTTTAGTGCCACTGCGACGGAGTCACCTAGTGCAG,6190 fluorescence intensity (a.u.)
15,CGTTCTAATTCCAATCAAACTTTCAATTTTGGCGTGAACTCGGAGTCACCTAGTGCAG,38400 fluorescence intensity (a.u.)
16,GAAAATTTCATACAAATTACATTGTAGTTACACGCAAGTTCGGAGTCACCTAGTGCAG,5990 fluorescence intensity (a.u.)
17,AATTAATTAAGGAAAGAAATACATAAATCAAATATCGCACCGGAGTCACCTAGTGCAG,18500 fluorescence intensity (a.u.)
18,TTTCCTGATTACGACTCTCTATGGTTGTAATCTTATAATTCGGAGTCACCTAGTGCAG,5890 fluorescence intensity (a.u.)
19,AAAATTGTAAATTTGGTTGAAATTGGAACGATGTTATGGACGGAGTCACCTAGTGCAG,14100 fluorescence intensity (a.u.)
20,TCTTTAATTAGTAGCACTGAACAGTGAACACCAGTGCAGTCGGAGTCACCTAGTGCAG,25600 fluorescence intensity (a.u.)
21,TGTCAATTAGACAACCTAAGATGACCACTGTAAAGGTTTCCGGAGTCACCTAGTGCAG,13300 fluorescence intensity (a.u.)

row,Sequence,binding signal
1,AGATTCTGTCAAATTGACAAACGAGCCTTCTTCAGTTCCCCGGAGTCACCTAGTGCAG,26400 fluorescence intensity (a.u.)
2,ATTTACTGATTACTGCCCCAGATTTGCTACAGTCCCCATACGGAGTCACCTAGTGCAG,22800 fluorescence intensity (a.u.)
3,ATGAATTTATTGATTGGGTTGGAGAGGGGAATCTCTCCAACGGAGTCACCTAGTGCAG,17100 fluorescence intensity (a.u.)
4,TGTTCGGATTGATACCATTTCGAACCATACCAGTAAAGTTCGGAGTCACCTAGTGCAG,9770 fluorescence intensity (a.u.)
5,AATAATTTGTGGTTAGATGACACTATCTTTTCAATTCTGTCGGAGTCACCTAGTGCAG,35400 fluorescence intensity (a.u.)
6,TTTGTTAATTTAGTGCTCGATCGTACACCTCTGGATCTCACGGAGTCACCTAGTGCAG,6060 fluorescence intensity (a.u.)
7,GTTTAATTTGTGTCTTCTAGTGCAATTTCAGGCTCCTGTACGGAGTCACCTAGTGCAG,24300 fluorescence intensity (a.u.)
8,TATCCATCTAATCAAACATTGTAGATAAACCACAATGAGCCGGAGTCACCTAGTGCAG,7740 fluorescence intensity (a.u.)
9,GGGCCTGAACTATGTTATGATTGATTTGGAAAAGTGGGTCCGGAGTCACCTAGTGCAG,26000 fluorescence intensity (a.u.)
10,ACTAGTGGATTGATTCCCGGTCTCTTATTGTCCCTATCATCGGAGTCACCTAGTGCAG,12900 fluorescence intensity (a.u.)
11,AGTAAATTAAACCACAATCATGGTCGTTACAAACACGAATCGGAGTCACCTAGTGCAG,19300 fluorescence intensity (a.u.)
12,ACCCAATAGATTCAACGAGATAATTATTATCAGTGGGTGTCGGAGTCACCTAGTGCAG,4350 fluorescence intensity (a.u.)
13,AAAAGAATCAGATTGAATTTCAAACTTTCGGACCAAATTTCGGAGTCACCTAGTGCAG,4180 fluorescence intensity (a.u.)
14,CTTAAAACTTGATCTAAATTAGAGTAAATTAAGCAAGAGGCGGAGTCACCTAGTGCAG,21300 fluorescence intensity (a.u.)
15,GAGATTATTTGAAATGTATATCTAGACTCATCTACCTCATCGGAGTCACCTAGTGCAG,4140 fluorescence intensity (a.u.)
16,GCTGTAGAAATTTCTCCTTCTTTGTTAAATGTATGTCTTTCGGAGTCACCTAGTGCAG,3550 fluorescence intensity (a.u.)
17,ACCAAATTAAGTGTTGTTTTGCCAAAATCTTGACAATTATCGGAGTCACCTAGTGCAG,6780 fluorescence intensity (a.u.)
18,TTGATTGAAATTGAAACGATATGATGGAAAAGTTAGAAGTCGGAGTCACCTAGTGCAG,48800 fluorescence intensity (a.u.)
19,AAATTTTGATTTTAAAACTTAATTGTAAAGTTGACTTTAACGGAGTCACCTAGTGCAG,9040 fluorescence intensity (a.u.)
20,GGGGATTGAGATCTTGAGGTGGCACGGACACTAGACAACACGGAGTCACCTAGTGCAG,4470 fluorescence intensity (a.u.)
21,CCGAAATTGCTGCACAACTGACTTTACCCTTATTAAAAGACGGAGTCACCTAGTGCAG,4510 fluorescence intensity (a.u.)

row,Sequence,binding signal
1,CCAATTAACTCTAAAGATTATGGCACACCTCCATAGTTTCCGGAGTCACCTAGTGCAG,8730 fluorescence intensity (a.u.)
2,ACTAAATTGTTGCCCATTTATCCTAGCTATATAGTAGCTACGGAGTCACCTAGTGCAG,3980 fluorescence intensity (a.u.)
3,TATAACATAAAATTTAATCCTTGATCCAAATACCACCTGACGGAGTCACCTAGTGCAG,3770 fluorescence intensity (a.u.)
4,GAAAACACAATTACACAATGGATTATTCTAACTTAAAATGCGGAGTCACCTAGTGCAG,5660 fluorescence intensity (a.u.)
5,TAAGATTGATTTTGAGAAGCCTATGATATGATAGAGTTTACGGAGTCACCTAGTGCAG,33600 fluorescence intensity (a.u.)
6,TAGATTGGCAATAAATATTTGGCATTTAGAATAATACGTCCGGAGTCACCTAGTGCAG,38900 fluorescence intensity (a.u.)
7,ATCCTTGAGACATAAATTAATTAAATAATATATGGGCCAACGGAGTCACCTAGTGCAG,8810 fluorescence intensity (a.u.)
8,TTCATAAATTTGTCGGTCACTTTCGGCTGATCCGGGTTTCCGGAGTCACCTAGTGCAG,5220 fluorescence intensity (a.u.)
9,GATTAATTAGGCTCAATATATTCATCTCGCGAATTAGTCCCGGAGTCACCTAGTGCAG,33000 fluorescence intensity (a.u.)
10,CTCTAAATCATAAAATAGTTAATTCATACAATAGTTACCTCGGAGTCACCTAGTGCAG,4150 fluorescence intensity (a.u.)
11,AGGTGATTTGGTTTTGTAAATTCAGCAACCTGTTCTATCTCGGAGTCACCTAGTGCAG,27700 fluorescence intensity (a.u.)
12,TACTAAATTAATAAACAAATTTATAGTGCCTTCTACACATCGGAGTCACCTAGTGCAG,27200 fluorescence intensity (a.u.)
13,AAAAGGTTAATTACCCGACTATGCAAATGAACAAGTACCTCGGAGTCACCTAGTGCAG,4550 fluorescence intensity (a.u.)
14,TTTGCTAATGACAAATTAATTAGGCTTAATAAATTCGTCTCGGAGTCACCTAGTGCAG,41500 fluorescence intensity (a.u.)
15,CGTAGTAATATCACCTTGATATAATTGACCGAGTTCAATACGGAGTCACCTAGTGCAG,10900 fluorescence intensity (a.u.)
16,TAAACTTAATTATAAATGTGCTAATGAACTATCTAGTTTTCGGAGTCACCTAGTGCAG,13700 fluorescence intensity (a.u.)
17,GCGCTGTGGATTGGTTGTGTCTTTTCTTGTATATAAACGCCGGAGTCACCTAGTGCAG,3960 fluorescence intensity (a.u.)
18,TTTAAAATTTAAGGTGATTGAATTAAGAAAGTAGTGCTCCCGGAGTCACCTAGTGCAG,45000 fluorescence intensity (a.u.)
19,TTCGGTGACTAGCTAATTAAGCTCGCCGCTAATCACTTGGCGGAGTCACCTAGTGCAG,19600 fluorescence intensity (a.u.)
20,TCCGATTCCAATCCAATCCAATCCGATTCAGAAGTAGAGCCGGAGTCACCTAGTGCAG,4080 fluorescence intensity (a.u.)
21,TTGGAAGATTAATAGGCTATTGTTAATTCTTACTGCCGGCCGGAGTCACCTAGTGCAG,4940 fluorescence intensity (a.u.)
